Measurements published in patent EP4691482A1, “LONG-ACTING CALCITONIN ANALOG” (Chengdu Aoda Biotechnology Co., Ltd., priority 2023, dated 2024).
Not every detail of the peptide structures is certain; ends, links or a residue may be inferred. At least one compound was matched to its structure with a doubt left.

biological target: T1, calcitonin receptors (CTR) (Homo sapiens, UniProt P30988); test: cAMP determination (HTRF, cAMP Dynamic 2 Kit) in cAMP Hunter HEK293-CT-R Gs cell line; assay type: cell-based; details: HEK293 cell line stably expressing CT-R; intracellular cAMP, HTRF
T1 construct: expressed in transfected cells; host or cells: cAMP Hunter HEK293-CT-R Gs cell line (HEK293, stably transfected)
T1 sequence (P30988 25-474): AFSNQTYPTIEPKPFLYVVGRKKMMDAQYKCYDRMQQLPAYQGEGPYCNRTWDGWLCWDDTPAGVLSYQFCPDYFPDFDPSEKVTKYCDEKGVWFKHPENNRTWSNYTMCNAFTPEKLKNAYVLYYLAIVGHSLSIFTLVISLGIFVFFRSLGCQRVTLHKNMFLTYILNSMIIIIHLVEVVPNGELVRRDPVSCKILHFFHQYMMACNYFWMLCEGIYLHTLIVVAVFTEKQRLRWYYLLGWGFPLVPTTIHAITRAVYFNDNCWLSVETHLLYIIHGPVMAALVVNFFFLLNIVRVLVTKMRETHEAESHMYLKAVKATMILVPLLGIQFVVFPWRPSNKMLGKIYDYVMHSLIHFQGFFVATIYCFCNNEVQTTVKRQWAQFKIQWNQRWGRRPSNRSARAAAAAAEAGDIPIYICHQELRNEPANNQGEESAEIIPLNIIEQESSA
From the text: Upon activation by a ligand, Gas-coupled GPCRs can upregulate intracellular cAMP level, and cAMP, as a second messenger, can mediate a series of cellular responses. The cAMP Hunter HEK293-CT-R Gs cell line, which overexpresses Gas-coupled calcitonin receptors (CTR), was used. The binding of calcitonin (or an analog thereof) to the overexpressed CTR upregulates intracellular cAMP level. The amount of intracellular cAMP produced after activation by the calcitonin (or an analog thereof) was detected using a cAMP Dynamic 2 Kit to evaluate the biological activity of the calcitonin (or an analog thereof). HEK293 cell line stably expressing CT-R was used. Stably transfected cells were stimulated with various concentrations of agonists. The time-resolved fluorescence resonance energy signal from the cells after stimulation with different doses was measured using HTRF technology, from which the biological activity of the agonist was subsequently calculated.

Structure (SMILES)	EC50 [pM]
CC(C)C[C@H](NC(=O)[C@H](CCCCN)NC(=O)CNC(=O)[C@H](CC(C)C)NC(=O)[C@@H](NC(=O)[C@@H]1CSSC[C@H](N)C(=O)N[C@@H](CO)C(=O)N[C@@H](CC(N)=O)C(=O)N[C@@H](CC(C)C)C(=O)N[C@@H](CO)C(=O)N[C@@H]([C@@H](C)O)C(=O)N1)C(C)C)C(=O)N[C@@H](CO)C(=O)N[C@@H](CCC(N)=O)C(=O)N[C@@H](CCC(=O)O)C(=O)N[C@@H](CC(C)C)C(=O)N[C@@H](Cc1c[nH]cn1)C(=O)N[C@@H](CCCCNC(=O)COCCOCCOCCNC(=O)CC[C@H](NC(=O)CCCCCCCCCCCCCCCCCCCCC(=O)O)C(=O)O)C(=O)N[C@@H](CC(C)C)C(=O)N[C@@H](CCC(N)=O)C(=O)N[C@H](C(=O)N[C@@H](Cc1ccc(O)cc1)C(=O)N1CCC[C@H]1C(=O)N[C@@H](CCCNC(=N)N)C(=O)N[C@H](C(=O)N[C@@H](CC(N)=O)C(=O)N[C@H](C(=O)NCC(=O)N[C@@H](CO)C(=O)NCC(=O)N[C@H](C(=O)N1CCC[C@H]1C(N)=O)[C@@H](C)O)[C@@H](C)O)[C@@H](C)O)[C@@H](C)O [Compound 20, Cys-Ser-Asn-Leu-Ser-Thr-Cys-Val-Leu-Gly-Lys-Leu-Ser-Gln-Glu-Leu-His-Lys(PEG3CH2CO-γGlu-docosanedioic acid)-Leu-Gln-Thr-Tyr-Pro-Arg-Thr-Asn-Thr-Gly-Ser-Gly-Thr-Pro-NH2]	3.2

same assay, conditions: relative to Salmon Calcitonin = 100.0; HEK293 CT-R cAMP

Relative Activity% [%]	Structure (SMILES)
256.8	CC(C)C[C@H](NC(=O)[C@H](CCCCN)NC(=O)CNC(=O)[C@H](CC(C)C)NC(=O)[C@@H](NC(=O)[C@@H]1CSSC[C@H](N)C(=O)N[C@@H](CO)C(=O)N[C@@H](CC(N)=O)C(=O)N[C@@H](CC(C)C)C(=O)N[C@@H](CO)C(=O)N[C@@H]([C@@H](C)O)C(=O)N1)C(C)C)C(=O)N[C@@H](CO)C(=O)N[C@@H](CCC(N)=O)C(=O)N[C@@H](CCC(=O)O)C(=O)N[C@@H](CC(C)C)C(=O)N[C@@H](Cc1c[nH]cn1)C(=O)N[C@@H](CCCCNC(=O)CNC(=O)CNC(=O)[C@H](CO)NC(=O)CNC(=O)[C@H](CO)NC(=O)CNC(=O)CC[C@H](NC(=O)CCCCCCCCCCCCCCCCCCC(=O)O)C(=O)O)C(=O)N[C@@H](CC(C)C)C(=O)N[C@@H](CCC(N)=O)C(=O)N[C@H](C(=O)N[C@@H](Cc1ccc(O)cc1)C(=O)N1CCC[C@H]1C(=O)N[C@@H](CCCNC(=N)N)C(=O)N[C@H](C(=O)N[C@@H](CC(N)=O)C(=O)N[C@H](C(=O)NCC(=O)N[C@@H](CO)C(=O)NCC(=O)N[C@H](C(=O)N1CCC[C@H]1C(N)=O)[C@@H](C)O)[C@@H](C)O)[C@@H](C)O)[C@@H](C)O [Compound 8]
231.7	CC(C)C[C@H](NC(=O)[C@H](CCCCN)NC(=O)CNC(=O)[C@H](CC(C)C)NC(=O)[C@@H](NC(=O)[C@@H]1CSSC[C@H](N)C(=O)N[C@@H](CO)C(=O)N[C@@H](CC(N)=O)C(=O)N[C@@H](CC(C)C)C(=O)N[C@@H](CO)C(=O)N[C@@H]([C@@H](C)O)C(=O)N1)C(C)C)C(=O)N[C@@H](CO)C(=O)N[C@@H](CCC(N)=O)C(=O)N[C@@H](CCC(=O)O)C(=O)N[C@@H](CC(C)C)C(=O)N[C@@H](Cc1c[nH]cn1)C(=O)N[C@@H](CCCCNC(=O)CNC(=O)CNC(=O)[C@H](CO)NC(=O)CNC(=O)[C@H](CO)NC(=O)CNC(=O)[C@H](CO)NC(=O)CNC(=O)CC[C@H](NC(=O)CCCCCCCCCCCCCCCCCCC(=O)O)C(=O)O)C(=O)N[C@@H](CC(C)C)C(=O)N[C@@H](CCC(N)=O)C(=O)N[C@H](C(=O)N[C@@H](Cc1ccc(O)cc1)C(=O)N1CCC[C@H]1C(=O)N[C@@H](CCCNC(=N)N)C(=O)N[C@H](C(=O)N[C@@H](CC(N)=O)C(=O)N[C@H](C(=O)NCC(=O)N[C@@H](CO)C(=O)NCC(=O)N[C@H](C(=O)N1CCC[C@H]1C(N)=O)[C@@H](C)O)[C@@H](C)O)[C@@H](C)O)[C@@H](C)O [Compound 9]
306.5	CC(C)C[C@H](NC(=O)[C@H](CCCCN)NC(=O)CNC(=O)[C@H](CC(C)C)NC(=O)[C@@H](NC(=O)[C@@H]1CSSC[C@H](N)C(=O)N[C@@H](CO)C(=O)N[C@@H](CC(N)=O)C(=O)N[C@@H](CC(C)C)C(=O)N[C@@H](CO)C(=O)N[C@@H]([C@@H](C)O)C(=O)N1)C(C)C)C(=O)N[C@@H](CO)C(=O)N[C@@H](CCC(N)=O)C(=O)N[C@@H](CCC(=O)O)C(=O)N[C@@H](CC(C)C)C(=O)N[C@@H](Cc1c[nH]cn1)C(=O)N[C@@H](CCCCNC(=O)CNC(=O)CNC(=O)CNC(=O)CNC(=O)CNC(=O)CC[C@H](NC(=O)CCCCCCCCCCCCCCCCCCC(=O)O)C(=O)O)C(=O)N[C@@H](CC(C)C)C(=O)N[C@@H](CCC(N)=O)C(=O)N[C@H](C(=O)N[C@@H](Cc1ccc(O)cc1)C(=O)N1CCC[C@H]1C(=O)N[C@@H](CCCNC(=N)N)C(=O)N[C@H](C(=O)N[C@@H](CC(N)=O)C(=O)N[C@H](C(=O)NCC(=O)N[C@@H](CO)C(=O)NCC(=O)N[C@H](C(=O)N1CCC[C@H]1C(N)=O)[C@@H](C)O)[C@@H](C)O)[C@@H](C)O)[C@@H](C)O [Compound 14]

Continued, compound first:

Structure (SMILES)	Relative Activity% [%]
CC(C)C[C@H](NC(=O)[C@H](CCCCN)NC(=O)CNC(=O)[C@H](CC(C)C)NC(=O)[C@@H](NC(=O)[C@@H]1CSSC[C@H](N)C(=O)N[C@@H](CO)C(=O)N[C@@H](CC(N)=O)C(=O)N[C@@H](CC(C)C)C(=O)N[C@@H](CO)C(=O)N[C@@H]([C@@H](C)O)C(=O)N1)C(C)C)C(=O)N[C@@H](CO)C(=O)N[C@@H](CCC(N)=O)C(=O)N[C@@H](CCC(=O)O)C(=O)N[C@@H](CC(C)C)C(=O)N[C@@H](Cc1c[nH]cn1)C(=O)N[C@@H](CCCCNC(=O)COCCOCCNC(=O)COCCOCCNC(=O)CC[C@H](NC(=O)CCCCCCCCCCCCCCCCCCC(=O)O)C(=O)O)C(=O)N[C@@H](CC(C)C)C(=O)N[C@@H](CCC(N)=O)C(=O)N[C@H](C(=O)N[C@@H](Cc1ccc(O)cc1)C(=O)N1CCC[C@H]1C(=O)N[C@@H](CCCNC(=N)N)C(=O)N[C@H](C(=O)N[C@@H](CC(N)=O)C(=O)N[C@H](C(=O)NCC(=O)N[C@@H](CO)C(=O)NCC(=O)N[C@H](C(=O)N1CCC[C@H]1C(N)=O)[C@@H](C)O)[C@@H](C)O)[C@@H](C)O)[C@@H](C)O [Compound 16, Cys-Ser-Asn-Leu-Ser-Thr-Cys-Val-Leu-Gly-Lys-Leu-Ser-Gln-Glu-Leu-His-Lys(AEEA-AEEA-γGlu-eicosanedioic acid)-Leu-Gln-Thr-Tyr-Pro-Arg-Thr-Asn-Thr-Gly-Ser-Gly-Thr-Pro-NH2]	327.6
CC(C)C[C@H](NC(=O)[C@H](CCCCN)NC(=O)CNC(=O)[C@H](CC(C)C)NC(=O)[C@@H](NC(=O)[C@@H]1CSSC[C@H](N)C(=O)N[C@@H](CO)C(=O)N[C@@H](CC(N)=O)C(=O)N[C@@H](CC(C)C)C(=O)N[C@@H](CO)C(=O)N[C@@H]([C@@H](C)O)C(=O)N1)C(C)C)C(=O)N[C@@H](CO)C(=O)N[C@@H](CCC(N)=O)C(=O)N[C@@H](CCC(=O)O)C(=O)N[C@@H](CC(C)C)C(=O)N[C@@H](Cc1c[nH]cn1)C(=O)N[C@@H](CCCCNC(=O)COCCOCCNC(=O)COCCOCCNC(=O)COCCOCCNC(=O)CC[C@H](NC(=O)CCCCCCCCCCCCCCCCCCC(=O)O)C(=O)O)C(=O)N[C@@H](CC(C)C)C(=O)N[C@@H](CCC(N)=O)C(=O)N[C@H](C(=O)N[C@@H](Cc1ccc(O)cc1)C(=O)N1CCC[C@H]1C(=O)N[C@@H](CCCNC(=N)N)C(=O)N[C@H](C(=O)N[C@@H](CC(N)=O)C(=O)N[C@H](C(=O)NCC(=O)N[C@@H](CO)C(=O)NCC(=O)N[C@H](C(=O)N1CCC[C@H]1C(N)=O)[C@@H](C)O)[C@@H](C)O)[C@@H](C)O)[C@@H](C)O [Compound 17, Cys-Ser-Asn-Leu-Ser-Thr-Cys-Val-Leu-Gly-Lys-Leu-Ser-Gln-Glu-Leu-His-Lys(AEEA-AEEA-AEEA-γGlu-eicosanedioic acid)-Leu-Gln-Thr-T yr-Pro-Arg-Thr-Asn-Thr-Gly-Ser-Gly-Thr-Pro-NH2]	306.5
